Converted amounts (≈) assume the structure as drawn. Where two headings read alike, the source gives them in different places. Blank lines part the entries; values can stand above or below the molecule they belong to.
Legend:
[1] = Kinetic solubility in phosphate buffer pH 7.4; assay type: physicochemical; conditions: pH 7.4, aqueous buffer, kinetic from dmso stock
mTAAR1 [2] = molecular target: T1, mTAAR1 (Mus musculus, UniProt Q923Y8); test: [3H]RO5166017 radioligand binding, mTAAR1 membranes
P-gp (MDR1) = test: Bidirectional permeability through MDCK-mdr1 monolayers; assay type: in vitro ADME; conditions: dog, MDCK-MDR1, pH 7.4
[3] = Metabolic stability in human liver microsomes; assay type: in vitro ADME; conditions: pooled human liver microsomes, pH 7.4
mTAAR1 [4] = molecular target: T1, mTAAR1; test: mTAAR1 LanceUltra cAMP IC50
VTA dopamine neurons = test: Electrophysiology, spontaneous firing of VTA dopamine neurons in mouse slices; assay type: cell-based; conditions: for Firing rate of dopamine neurons: baseline 0.6 ± 0.1 Hz
rTAAR1 [5] = molecular target: T2, rTAAR1 (Rattus norvegicus, UniProt Q923Y9); test: rTAAR1 LanceUltra cAMP IC50
[6] = Metabolic stability in mouse liver microsomes; assay type: in vitro ADME; conditions: pH 7.4
[7] = Metabolic stability in rat liver microsomes; assay type: in vitro ADME; conditions: pH 7.4
[8] = literature; cited from earlier work
mTAAR1 [9] = molecular target: T1, mTAAR1; conditions: read-out: mTAAR1 IC50; literature value; cited from earlier work
rTAAR1 [10] = molecular target: T2, rTAAR1; test: Literature functional data at rTAAR1; assay type: cell-based; conditions: from literature IC50 values

T1 sequence (Q923Y8 whole entry): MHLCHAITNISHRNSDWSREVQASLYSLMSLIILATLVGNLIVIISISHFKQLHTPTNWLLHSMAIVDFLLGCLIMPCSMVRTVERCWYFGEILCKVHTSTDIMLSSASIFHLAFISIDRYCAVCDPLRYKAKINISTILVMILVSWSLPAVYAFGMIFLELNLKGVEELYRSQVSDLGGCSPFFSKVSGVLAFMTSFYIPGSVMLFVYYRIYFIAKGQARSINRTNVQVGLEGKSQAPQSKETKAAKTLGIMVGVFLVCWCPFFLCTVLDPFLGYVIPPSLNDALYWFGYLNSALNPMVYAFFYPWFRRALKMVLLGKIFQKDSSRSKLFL
T2 sequence (Q923Y9 whole entry): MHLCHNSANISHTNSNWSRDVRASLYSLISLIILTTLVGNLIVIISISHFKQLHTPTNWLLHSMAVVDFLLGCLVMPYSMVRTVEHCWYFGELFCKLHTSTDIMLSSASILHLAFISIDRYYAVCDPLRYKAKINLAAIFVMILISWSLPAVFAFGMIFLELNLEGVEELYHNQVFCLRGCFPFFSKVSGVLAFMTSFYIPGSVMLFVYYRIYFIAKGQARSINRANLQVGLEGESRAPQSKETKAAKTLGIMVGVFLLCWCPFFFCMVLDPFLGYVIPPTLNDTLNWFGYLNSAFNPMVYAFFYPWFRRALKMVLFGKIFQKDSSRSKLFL

solubility kinetic at 90 min [1]: 1.7 ± 0.5 µM (≈ 0.765 µg/mL)
Ki (mTAAR1 [2]): 139 ± 66 nM
Papp A→B at 90 min, 10 μM (P-gp (MDR1)): 13.8 ×10⁻⁶ cm/s
Papp B→A at 90 min, 10 μM (P-gp (MDR1)): 13.9 ×10⁻⁶ cm/s
efflux ratio at 90 min, 10 μM (P-gp (MDR1)): 1
half-life at 10 μM [3]: 1.4 h
IC50 (mTAAR1 [4]): 1190 ± 80 nM
IC50 (rTAAR1 [5]): 748 ± 56 nM
half-life at 10 μM [6]: 1.1 h
half-life at 10 μM [7]: 9.11 min
SMILES: N#Cc1c(C(F)(F)F)cc(-c2ccc(Cl)cc2)nc1SCC(=O)Nc1ncccn1 [Compound 34, 2-[[6-(4-chlorophenyl)-3-cyano-4-(trifluoromethyl)-2-pyridinyl]thio]-N-2-pyrimidinylacetamide]
Change in firing from baseline (VTA dopamine neurons; 40 μM): 0.7 ± 0.2 Hz
Firing rate of dopamine neurons (VTA dopamine neurons; 40 μM applied after EPPTB 10 nM): 0.7 ± 0.1 Hz

SMILES: CCN(C[C@H]1COC(N)=N1)c1ccccc1 [RO5166017, reference compound]
Effect on firing of dopamine neurons (VTA dopamine neurons; 500 nM agonist alone): significantly decreased firing of dopamine neurons

SMILES: CCOc1cccc(NC(=O)c2ccc(N3CCCC3)c(C(F)(F)F)c2)c1 [EPPTB, N-(3-ethoxyphenyl)-4-(pyrrolidin-1-yl)-3-trifluoromethylbenzamide]
Firing rate of dopamine neurons (VTA dopamine neurons; 10 nM): 0.9 ± 0.1 Hz
brain/plasma ratio [8]: 0.5
clearance [8]: high clearance
IC50 (mTAAR1 [9]): 27.5 ± 9.4 nM
fold less potent at rTAAR1 than at mTAAR1 (functional) (rTAAR1 [10]): 165 fold

— PMC9730857 (ACS chemical neuroscience, 2022)
